Laboratory results: PubChem BioAssay AID1814 (Broad Institute, 2009)
In all, about 300,000 compounds went through this assay and about 22,000 (7.3%) were called active. Inconclusive results, whose numbers are uncertain, are shown with a selection of clear calls. Cut-off read from the data, not from the text of the source: active = activity score below about -60%; inconclusive = mostly about -28% to -61%; inactive = positive scores.

experiment: Activators via SNCA 5'UTR binding, MLPCN (AID 1814); conditions: alpha-synuclein 5'UTR reporter, activators screen; active compounds read low; tested at 7.5 µM

Activity score, inactive:
COc1ccc2cc[nH]c2c1 70.8%, CC(C)c1ccc(/C=C/C2=NNC(=O)CC2)cc1 87.4%, CCN(CC)c1ccc(/C=N/NC(=O)c2cnccn2)c(O)c1 72.3%, Brc1ccc(C2C3=C(Nc4ncnn42)c2ccccc2OC3c2ccncc2)cc1 (stereo unspecified) 70.5%, COc1cc2c(cc1OC)C(C)N(C(=O)c1cc(C)on1)CC2 (stereo unspecified) 97.1%, COc1ccc2[nH]c(-c3cccc(F)c3)cc(=O)c2c1 62.6%

Activity score, active:
c1ccc2cc(-c3cc4ccccn4c3)ccc2c1 -98.1%, COc1ccc(-c2nc(=S)c3c([nH]2)Oc2ccc(C)cc2C3)cc1O -75.6%, O=C1C(Cl)=C(Nc2ccccc2O)C(=O)N1CCc1ccccc1 -87.3%

Activity score, inconclusive:
N/C(=N\NS(=O)(=O)c1cc(C(F)(F)F)cc(C(F)(F)F)c1)c1ccccn1 -49%, CCNC(=S)NNC(=O)c1cc(-c2cccc(OC)c2)nc2ccccc12 -55.2%, O=C(Nc1cccc(F)c1)c1ccccc1 -60.9%, c1ccc(C2Nc3ccccc3-c3nc4ccccc4n32)cc1 (stereo unspecified) -40.8%, O=C(/C=C/c1ccccc1Cl)Nc1cccc(O)c1 -30.9%, NC(=O)c1c(NC(=O)C2CCCO2)sc2c1CCCCC2 (stereo unspecified) -49.1%, CN(C)CCN(C(=O)c1ccc(S(=O)(=O)N(C)C)cc1)c1nc2cc3c(cc2s1)OCCO3 -53.8%, C/C(=N\NC(=O)c1ccc([N+](=O)[O-])c(C)c1)c1ccccc1Cl -57.7%, CCOc1ccc2nc3c(cc2c1)CN(CCCO)C(=NCCOC)S3 -49.9%, COc1ccc(C(=O)Nc2nc(C)c(C(=O)N(C)C)s2)cc1OC -53.7%, CC(C)(C)c1ccc(C(=O)NNC(=O)c2cccc(Br)c2)cc1 -61.2%, Cc1cc(NCCN(C)C)n2nc(-c3cccs3)cc2n1 -49.8%, O=[N+]([O-])/C(C=Nc1ccccc1O)=C\Nc1ccccc1O -45.3%, Cc1ccc(Nc2nc(CSc3nnc(-c4cccnc4)n3-c3ccccc3F)cs2)cc1 -41.3%, COc1ccc(S(=O)(=O)c2nnn(-c3cccc(Cl)c3)c2N)cc1 -51.1%, Cc1c(/C=N/Nc2nc3ccccc3[nH]2)c2ccccc2n1C -60.9%, CCOC(=O)Cc1csc(N/N=C\c2ccccc2OC)n1 -59.3%
